Assay results from patent US5073565A, “Tetrazole ureas and thioureas and their use as ACAT inhibitors” (Warner-Lambert Company, priority 1990, dated 1991).
The name of at least one read-out is uncertain.

Test: in vivo screen designated APCC (total cholesterol in rats on PCC diet)
Set-up: species or system male Sprague-Dawley rats
Details: rat
Description: In one in vivo screen designated APCC, male Sprague-Dawley rats (200 to 225 g) were randomly divided into treatment groups and dosed at 4 PM with either vehicle (CMC/Tween) or suspensions of compounds in vehicle. The normal chow diet was then replaced with the PCC diet (5.5% peanut oil, 1.5% cholesterol, and 0.5% cholic acid). The rats consumed this diet a libitum during the night and were sacrificed at 8 AM to obtain blood samples for cholesterol analysis using standard procedures. Statistical differences between mean cholesterol values for the same vehicle were determined using analysis of variance followed by Fisher's least significant test. The results of this trail for representative compounds of the present invention appear in Table II wherein percent change means the difference in total cholesterol between control, and the drug-treated animals, and the (mg/dL) is the milligrams of compound per deciliter of vehicle administered. The milligrams are reflected parenthetically.

[1] = 50 (mg/dl), N/C means no change

| SMILES | % Change (difference in total cholesterol between control and drug-treated animals) (30 (mg/dl)) [%] | % Change (difference in total cholesterol between control and drug-treated animals) [1] [%] |
| --- | --- | --- |
| CCCCCCCCn1nnc(NC(=O)Nc2c(C(C)C)cccc2C(C)C)n1 [Example 22, N-[2,6-Bis(1-methylethyl)phenyl]-N'-(2-octyl-2H-tetrazol-5-yl)urea] | -50 |  |
| CC(C)c1cccc(C(C)C)c1NC(=O)Nc1nnn(CCCCCCCCCCCCOC2CCCCO2)n1 (stereo not shown) [1 (c)] | -42 |  |
| CCCCCCCCCCCn1nnc(NC(=O)Nc2c(C(C)C)cccc2C(C)C)n1 [Example 10, N-[2,6-Bis(1-methylethyl)-phenyl]-N'-(2-undecyl-2H-tetrazol-5-yl)urea] | -45 |  |
| CCCCCCCCCCn1nnc(NC(=O)Nc2c(C(C)C)cccc2C(C)C)n1 [Example 24, N-[2,6-Bis(1-methylethyl)phenyl]-N'-(2-decyl-2H-tetrazol-5-yl)urea] | -50 |  |
| CCCCCCn1nnc(NC(=O)Nc2c(C(C)C)cccc2C(C)C)n1 [Example 23, N-[2,6-Bis(1-methylethyl)phenyl]-N'-(2-hexyl-2H-tetrazol-5-yl)urea] | -28 |  |
| CCCCCCCCCCn1nnnc1NC(=O)Nc1c(C(C)C)cccc1C(C)C [Example 20] |  | -47 |
| CCCCCCCCCCCCCn1nnc(NC(=O)Nc2c(C(C)C)cccc2C(C)C)n1 [Example 4, N-[2,6-Bis(1-methylethyl)phenyl]-N'-(2-tridecyl-2H-tetrazol-5-yl)urea] | -50 |  |
| CC(C)c1cccc(C(C)C)c1NC(=O)Nc1nnnn1Cc1ccccc1 [Example 19, N-[2,6-Bis(1-methylethyl)phenyl]-N'-(1-phenylmethyl-1H-tetrazol-5-yl)urea] |  | -26 |
| CCCCCCCCCCCCCCn1nnc(NC(=O)Nc2c(C(C)C)cccc2C(C)C)n1 [Example 3, N-[2,6-bis(1-methylethyl)phenyl]-N'-(2-tetradecyl-2H-tetrazol-5-yl)urea] | -55 |  |
| CCCCCCCCCCCCCCCCn1nnc(NC(=O)Nc2c(C(C)C)cccc2C(C)C)n1 [Example 6, N-[2,6-Bis(1-methylethyl)-phenyl]-N'-(2-hexadecyl-2H-tetrazol-5-yl)urea] | -58 |  |
| CCCCCCCCCCCCn1nnc(NC(=O)Nc2c(C(C)C)cccc2C(C)C)n1 [Example 5, N-[2,6-Bis(1-methylethyl)-phenyl]-N'-(2-dodecyl-2H-tetrazol-5-yl)urea] | -54 |  |
| CC(C)c1cccc(C(C)C)c1NC(=O)Nc1nnn(CCCCCCCCCCOC2CCCCO2)n1 (stereo not shown) [Example 7] | -56 |  |
| CC(C)c1cccc(C(C)C)c1NC(=O)Nc1nnn(CCCCCCCCCCCCO)n1 [1 (d), N-[2,6-Bis(1-methylethyl)phenyl]-N'-[2-(12-hydroxy-dodecyl)-2H-tetrazol-5-yl] urea] | -54 |  |
